The structures appear in SMILES notation.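 Cultured in 96-well plates, cells were exposed to test compound for 48 hours across five concentrations. TGI denotes the concentration required for complete inhibition of growth.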 Not every entry of the source has a single result; some have several. This list holds those alone. The source may hold further records. The tests behind the records often covered other concentration ranges, which the source does not state; some values may only mark the edge of a range.

Test systems include T-47D breast; HT29 colon; OVCAR-5 ovarian; OVCAR-3 ovarian.
Common to all, as to assay: inhibition of tumour cell growth, NCI panel, 48 h

`CC1OC(OC2CCC3(C=O)C4CCC5(C)C(C6=CC(=O)OC6)CCC5(O)C4CCC3(O)C2)C(O)C(O)C1O` (centres undefined): the TGI in the assay on T-47D breast is 0.141 nM and > 100 µM; in the assay on HT29 colon, 0.0989 nM and 17.9 nM; in the assay with OVCAR-5 ovarian it was 0.0781 nM and 27.4 nM; with OVCAR-3 ovarian, 0.0332 nM and 11.8 nM.

The values above are taken from PubChem BioAssay (NCI).
